# Results from the supplement of paper PMC4967469.
# A lower IC50 marks a more sensitive line; fits outside the tested doses are given as limits. AUC is the area under the same curve over the 256-fold range up to the top dose, as a fraction; it is 1 without any effect and falls as sensitivity rises. A top dose marked as inferred was calculated from the reported fits. Drugs with an entry number were screened twice under separate entries, and the two screens often disagree.
# Compound: NC(=O)[C@@H](CCC(F)(F)F)N(Cc1ccc(-c2ncon2)cc1F)S(=O)(=O)c1ccc(Cl)cc1 [BMS-708163]
# Experiment: Viability of human cancer cell lines after 72 h of drug (GDSC screen)
# Conditions: screen: GDSC drug entry 205; top dose inferred
# Description: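 Human cancer cell lines in 384-well plates, medium with 10% serum, drug for 72 h over a 256-fold dose range (nine 2-fold or five 4-fold steps up to the top dose). Adherent lines were fixed and stained with the nucleic acid dye Syto60, suspension lines read with resazurin; signal relative to control wells, capped at 0 and 100%. One two-parameter sigmoid per drug and line, fitted in a mixed model over all curves with the slope shared within a line.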
Cell Line,AUC,IC50
"TK10 (kidney, adherent, top dose 10.24 µM)",0.981,> 10.2 µM
"TK (B-cell lymphoma, suspension, top dose 10.24 µM)",0.982,> 10.2 µM
"TMK-1 (stomach, adherent, top dose 10.24 µM)",0.986,> 10.2 µM
"TOV-21G (ovary, adherent, top dose 10.24 µM)",0.932,> 10.2 µM
"TOV-112D (ovary, adherent, top dose 10.24 µM)",0.985,> 10.2 µM
"TT2609-C02 (thyroid, adherent, top dose 10.24 µM)",0.979,> 10.2 µM
"TT (thyroid, adherent, top dose 10.24 µM)",0.983,> 10.2 µM
"TUR (B-cell lymphoma, suspension, top dose 10.24 µM)",0.988,> 10.2 µM
"TYK-nu (ovary, adherent, top dose 10.24 µM)",0.983,> 10.2 µM
"U031 (kidney, adherent, top dose 10.24 µM)",0.976,> 10.2 µM
"U251 (glioma, adherent, top dose 10.24 µM)",0.987,> 10.2 µM
"U-2-OS (osteosarcoma, adherent, top dose 10.24 µM)",0.984,> 10.2 µM
"U-87-MG (glioma, adherent, top dose 10.24 µM)",0.982,> 10.2 µM
"U-118-MG (glioma, adherent, top dose 10.24 µM)",0.975,> 10.2 µM
"U-698-M (B-cell leukaemia, suspension, top dose 10.24 µM)",0.987,> 10.2 µM
"UACC-62 (melanoma, adherent, top dose 10.24 µM)",0.986,> 10.2 µM

Cell Line,AUC,IC50
"UACC-257 (melanoma, adherent, top dose 10.24 µM)",0.979,> 10.2 µM
"UACC-812 (breast, adherent, top dose 10.24 µM)",0.99,> 10.2 µM
"UACC-893 (breast, adherent, top dose 10.24 µM)",0.982,> 10.2 µM
"UM-UC-3 (bladder, adherent, top dose 10.24 µM)",0.985,> 10.2 µM
"UMC-11 (lung carcinoid, adherent, top dose 10.24 µM)",0.991,> 10.2 µM
"UWB1.289 (ovary, adherent, top dose 10.24 µM)",0.98,> 10.2 µM
"VA-ES-BJ (soft tissue, adherent, top dose 10.24 µM)",0.986,> 10.2 µM
"VAL (B-cell lymphoma, suspension, top dose 10.24 µM)",0.982,> 10.2 µM
"VCaP (prostate, adherent, top dose 10.24 µM)",0.965,> 10.2 µM
"VM-CUB-1 (bladder, adherent, top dose 10.24 µM)",0.988,> 10.2 µM
"VMRC-MELG (melanoma, adherent, top dose 10.24 µM)",0.988,> 10.2 µM
"VMRC-RCW (kidney, adherent, top dose 10.24 µM)",0.989,> 10.2 µM
"VMRC-RCZ (kidney, adherent, top dose 10.24 µM)",0.98,> 10.2 µM
"WIL2-NS (lymphoid neoplasm, suspension, top dose 10.24 µM)",0.976,> 10.2 µM
"WM35 (melanoma, adherent, top dose 10.24 µM)",0.973,> 10.2 µM
"WM278 (melanoma, adherent, top dose 10.24 µM)",0.982,> 10.2 µM

# Same assay, conditions: top dose 5 µM; screen: GDSC drug entry 1072; top dose inferred
Cell Line,AUC,IC50
"UWB1.289 (ovary, adherent)",0.974,> 5 µM
"VMRC-LCD (lung adenocarcinoma, adherent)",0.987,> 5 µM
